The full ranking holds about 33,000 sequences; the median of “E-score (-0.5 to 0.5)” is about -0.054, and the highest 2% start at about 0.35. This is one part of the list.
Each sequence was assayed against T1, Stb5 (UniProt P38699) (assay: PBM E-score (8-mer binding enrichment) (E-score (-0.5 to 0.5)); higher = stronger / more preferred TF binding; most listed sequences are background and not binding sites). Settings: protein concentration: 200 nM; construct: GST-full length.
T1 sequence: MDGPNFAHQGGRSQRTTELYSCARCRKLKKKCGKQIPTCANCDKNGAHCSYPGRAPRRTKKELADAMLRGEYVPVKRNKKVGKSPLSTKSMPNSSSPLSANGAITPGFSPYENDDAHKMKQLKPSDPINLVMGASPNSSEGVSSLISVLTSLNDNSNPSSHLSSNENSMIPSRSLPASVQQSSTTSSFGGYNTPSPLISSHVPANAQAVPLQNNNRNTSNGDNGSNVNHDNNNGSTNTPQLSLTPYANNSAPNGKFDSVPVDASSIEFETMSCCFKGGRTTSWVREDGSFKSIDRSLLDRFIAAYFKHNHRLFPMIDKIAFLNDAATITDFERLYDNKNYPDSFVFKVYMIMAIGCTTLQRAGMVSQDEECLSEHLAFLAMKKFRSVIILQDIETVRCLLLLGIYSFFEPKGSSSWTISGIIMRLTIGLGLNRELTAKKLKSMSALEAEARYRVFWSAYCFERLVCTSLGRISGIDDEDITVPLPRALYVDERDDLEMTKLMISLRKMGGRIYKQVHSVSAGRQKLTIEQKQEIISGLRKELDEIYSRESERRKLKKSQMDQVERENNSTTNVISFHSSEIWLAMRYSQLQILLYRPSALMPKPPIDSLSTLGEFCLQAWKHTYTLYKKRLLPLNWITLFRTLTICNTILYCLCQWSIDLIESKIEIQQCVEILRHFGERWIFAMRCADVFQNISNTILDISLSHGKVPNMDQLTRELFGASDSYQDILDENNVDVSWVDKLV
Method in brief: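 Universal all-10-mer Agilent arrays, double-stranded by primer extension on fresh or once-stripped slides, were probed with about 100-200 nM GST-tagged yeast transcription factors made by PURExpress. Fluorescent anti-GST detected bound protein, and masliner normalised the scans. E-scores from the Universal PBM Analysis Suite were given to each ungapped eight-base word pooled with its reverse complement.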

| Sequence | PBM E-score |
| --- | --- |
| CGCGCTTA | 0.264 |
| CTAGTTTA | -0.0735 |
| AGGACGAG | -0.288 |
| AAAGTGGA | -0.27 |
| ACTCATAT | -0.0119 |
| AATTGTGT | -0.128 |
| GAGAGGCC | -0.0937 |
| GGTTGATA | -0.0103 |
| ACTTGACG | -0.1 |
| CTTTGCGA | -0.0257 |
| AAGGCCTA | -0.00904 |
| ACCCTCTG | -0.213 |
| CGTGTTAG | 0.0849 |
| GAAAGGTC | 0.12 |
| GCATGTTA | 0.0557 |
| CGAGGATC | -0.0526 |
| AAGGGCTA | -0.133 |
| GGGTGACC | -0.0307 |
| CCTGGGAG | 0.00102 |
| AACTATAC | 0.0236 |
| AACGTTAC | -0.0366 |
| GAAGATCA | -0.0909 |
| GCGATGCA | -0.0128 |
| GTCGCGAA | -0.154 |
| ACCGACAT | 0.322 |

| Sequence | PBM E-score |
| --- | --- |
| ACCAAACC | -0.03 |
| CGAACAGA | -0.129 |
| AAGATCAC | -0.108 |
| CCAGGCTC | -0.217 |
| GCCAGGTA | -0.0503 |
| GAGAGCCA | -0.174 |
| CCGGGTTC | 0.24 |
| TATCCGAA | 0.141 |
| AGGCTAAA | -0.0452 |
| CACCGTTA | 0.367 |
| AATGATTA | -0.189 |
| AAGGATCC | -0.0877 |
| CGTCTCGA | -0.237 |
| GGCGACAC | 0.176 |
| CCGGCAAG | 0.205 |
| GTCTATGA | -0.0964 |
| AAATATTG | 0.0971 |
| AGTTCATC | -0.183 |
| GGCGGGTA | 0.229 |
| AAGGATGT | -0.249 |
| CAAAACAA | -0.388 |
| GACATTCC | -0.0941 |
| AGGCGCTA | 0.0525 |
| CTTGCACC | 0.118 |
| ACGCACAG | -0.115 |

| Sequence | PBM E-score |
| --- | --- |
| CACTCATG | -0.146 |
| CCGCCCAC | 0.264 |
| CGGTCTGA | 0.229 |
| AATATCGG | 0.258 |
| GTTGCCAA | -0.23 |
| AATCGCAG | -0.183 |
| ACTATTAA | -0.227 |
| AGAAATGC | 0.116 |
| ATTCTGGA | -0.223 |
| CGAGGAAC | 0.176 |
| ATTAGTCA | -0.0683 |
| AAGCAGCA | -0.0749 |
| GGCCATTA | 0.148 |
| ACGCGATA | -0.138 |
| CAGTTGGC | -0.211 |
| CACATACG | -0.0167 |
| CGTGTACC | -0.0872 |
| ATGTCCTG | -0.0717 |
| AAAATCAT | -0.106 |
| AATGGAGT | -0.259 |
| ACCTAGCT | -0.207 |
| AGGTCTTC | -0.235 |
| GATCTTTA | -0.0381 |
| ATTGGATG | -0.203 |
| GACCACCA | -0.126 |

| Sequence | PBM E-score |
| --- | --- |
| AATTTCTA | -0.162 |
| GTGCCCCA | -0.159 |
| AAACCCGG | 0.395 |
| TCAGACAA | -0.0568 |
| GGGCGATA | 0.11 |
| CAGATAAA | -0.0468 |
| AGGTTACT | 0.0339 |
| GTCAGAAC | 0.0598 |
| CAATATCA | 0.0378 |
| CAGCGGAA | 0.164 |
| GGAGTTAC | 0.365 |
| CCGACCCG | 0.341 |
| GACGATTA | 0.0317 |
| CACCCCGG | 0.277 |
| GAAGACGC | -0.0115 |
| AATCACAC | 0.0783 |
| GCTAAATA | 0.019 |
| CTATCTTA | -0.0282 |
| CAAATGTA | 0.136 |
| CCGGGTGC | 0.177 |
| CTCAACAG | -0.144 |
| ATCACAGC | -0.0307 |
| AATGGGCC | -0.0367 |
| ACCGGTCG | 0.332 |
| CTGTCATA | -0.184 |

| Sequence | PBM E-score |
| --- | --- |
| CGAGAAGC | 0.0462 |
| CCCATCAC | -0.02 |
| CCCTGATC | -0.00425 |
| ACAGAACA | 0.081 |
| ACTCCGCA | 0.259 |
| CCTGCTAC | -0.0327 |
| TAGGCGCA | -0.186 |
| CCATGGCA | -0.0516 |
| CACAATCG | 0.0773 |
| ACCCGGGA | 0.208 |
| GCGGAGTA | 0.33 |
| GAAACAGC | 0.0928 |
| CCGCTAAC | 0.278 |
| CCCGTCTA | 0.151 |
| CGATTAAC | 0.232 |
| CATTACCG | 0.205 |
| GAGGGGAC | -0.137 |
| ACAGACCG | 0.23 |
| ACACATCA | -0.0998 |
| ACTGTCTC | -0.267 |
| TCTGGACA | -0.135 |
| ATTGTGCG | -0.0334 |
| ACAGAGCG | -0.0791 |
| ACTTAAGT | 0.128 |
| AGGATTCG | -0.0678 |

| Sequence | PBM E-score |
| --- | --- |
| AGCTTCGA | -0.217 |
| CATGAGTA | -0.00299 |
| GAGTTTGC | 0.0867 |
| CACTTAAG | 0.166 |
| ACGGCCCT | 0.264 |
| ATGGTGCG | -0.0498 |
| CTAAGCTC | -0.15 |
| GCCCATGA | -0.0767 |
| GCACGCCC | -0.218 |
| AATCATGT | -0.176 |
| GGTCCTCA | 0.0195 |
| ACATAACA | 0.176 |
| AGGTGACA | -0.0515 |
| AATGGCAG | -0.0882 |
| AGTCACCA | 0.122 |
| ATGCCTTA | -0.338 |
| ATATTTGA | -0.0169 |
| ATTACTGC | 0.0035 |
| AGCTCCCA | -0.201 |
| GTAGAGAA | -0.162 |
| CCAACTAA | -0.00745 |
| AACATCTA | -0.209 |
| CCAGAATA | 0.0023 |
| AAAAACTC | -0.0908 |
| ACCGTGCA | 0.174 |

| Sequence | PBM E-score |
| --- | --- |
| CCACTTCA | -0.0394 |
| CACGGTCC | 0.135 |
| CAGATTCA | -0.267 |
| ACCCTTCC | -0.0754 |
| GATTCTGC | 0.0324 |
| GTGGTAAA | 0.0327 |
| ACTTCGGC | 0.169 |
| GCGATCGA | -0.119 |
| ATCAAACG | 0.0736 |
| ATCCCGAT | 0.238 |
| GCTAATTA | 0.048 |
| ATTGAAAA | 0.103 |
| CTTTCATC | -0.149 |
| TCATACGA | -0.104 |
| CGCGGCCC | 0.227 |
| GAGCTGAC | -0.0158 |
| CTTTAGCA | 0.133 |
| CGGAAGAC | 0.118 |
| AAGTTGGA | -0.127 |
| ACATGTGG | -0.0719 |
| GCCTTAAA | 0.12 |
| ACGCCCAT | 0.101 |
